The whole screen tested about 370,000 compounds, of which about 500 (0.14%) were called active. The shares of active, inactive and inconclusive entries below differ from those in the screen. Calls follow the shape of the dose curve; as a rule, active = well fitted activation curve with a large enough effect; inconclusive = small, poorly fitted or top-dose-only effect; inactive = no such curve, though single readings can be large or run the other way. No potency is given beside an inconclusive call; the fits are too rough.
Test: qHTS of alpha-syn Inhibitors; also: nearly all actives have a fitted effect of over 65% in size; as to growth rescue (activation): % of control where 0% means no effect
Details: Yeast expressing alpha-synuclein, BacTiter-Glo, 24 h; Potency: growth rescue unless noted; growth rescue (activation): at 46.1 µM (top of the series) unless noted
Source text: The goal of this project is to identify new chemical probes capable of reversing the toxicity associated with the Parkinson disease-related protein, alpha-synuclein. Compounds will be selected on their ability to restore growth in yeast cells expressing toxic levels of alpha-synuclein. These compounds will provide a complementary approach to deciphering the tangled mechanisms of toxicity and protection that we have uncovered through genome-wide genetic screens and are beginning to uncover in a large-scale proteomics analysis with mass spectroscopy. To this end, a miniaturized assay was developed to be screened against the Molecular Libraries Small Molecule Repository (MLSMR) to discover alpha-synuclein inhibitors. Please note that in the set-up this yeast-based assay compounds that inhibit as alpha-syn, have a read-out as activators. NIH Chemical Genomics Center [NCGC] NIH Molecular Libraries Probe Centers Network [MLPCN] MLPCN Grant: NS060957 Assay Submitter (PI): Susan Lindquist, Whitehead Institute/MIT
Dispense 2.5 microL yeast galactose medium per 1536-well plate, pin compound, dispense 2.5 microL alpha-synuclein expressing yeast in galactose medium at OD600=0.02 (pregrown in raffinose medium to mid-log phase) per well, incubate for 24 hr at 30 deg C, and cell growth will be measured using 5 microL of Bactiter/Glo reagent to entire plate and read using Luminescence Protocol in ViewLux.
Potency is read from the fitted curve at half-maximal effect; tags tell the direction and shape of the fitted curve.

**Q.** With CC(C)CCN=Cc1c(O)n(-c2ccccc2)c(=O)c2ccccc12 as the compound, how does the Potency read?
**A.** inconclusive [activator, single point]

**Q.** For O=C(CN1C(=O)C2(SCC(=O)N2c2ccc(F)c(F)c2)c2ccccc21)Nc1cccc(Cl)c1 (configuration not stated), which Potency is on record?
**A.** inconclusive [activator, single point]

**Q.** With O=C(Nc1nnc(CCN2CCCCC2)s1)c1ccccc1Cl as the compound, how does the Potency read?
**A.** inconclusive [activator, single point]

**Q.** With Cc1ccc(/C(N)=N/OC(=O)N2CCOCC2)cc1 as the compound, how does the “growth rescue (activation)” value read?
**A.** inactive: -12.4%

**Q.** Which Potency does the source give for CC(=O)NC(c1ccc(Cl)cc1Cl)c1ccc2cccnc2c1O (configuration not stated) here?
**A.** inconclusive [activator, single point]

**Q.** For CCc1nc2ccc(C(=O)Nc3cccc(OCC(=O)N(C)C)c3)cn2c1N(C)Cc1ccc(N(C)C)cc1, which “growth rescue (activation)” value is on record?
**A.** inactive: 0.404%

**Q.** Which Potency does the source give for N#C/C(=C1\CCCN1)c1nc(-c2ccccc2)cs1 here?
**A.** inconclusive [activator, single point]

**Q.** For C[C@@H]1CCCCO[C@H](CN(C)C(=O)Nc2ccc(F)cc2)[C@@H](C)CN([C@H](C)CO)C(=O)c2cc(NC(=O)c3ccccc3)ccc2O1, which “growth rescue (activation)” value is on record?
**A.** inactive: 0.175%

**Q.** For CCOC(=O)[C@]12CCC=C1N(Cc1ccco1)C(=O)[C@H](CC(=O)N1CCOCC1)C2, which Potency is on record?
**A.** inconclusive [activator, single point]

**Q.** With Cc1cccc(-c2noc(CCC(=O)NC3CCCC3)n2)c1 as the compound, how does the Potency read?
**A.** inconclusive [activator, single point]

**Q.** Which Potency does the source give for Cc1c(Cl)cccc1NC(CC(=O)c1ccccc1)C(=O)O (configuration not stated) here?
**A.** inconclusive [activator, full curve]

**Q.** For O=C(O)C1=CC[C@@H](c2ccc(Cl)cc2)N(S(=O)(=O)c2ccc(Cl)cc2)[C@H]1c1ccc(Br)cc1, which “growth rescue (activation)” value is on record?
**A.** inactive: 2.75%

**Q.** For Cc1cccc(C(=O)NCCc2sc(-c3ccccc3)nc2C)c1, which Potency is on record?
**A.** inconclusive [activator, single point]

**Q.** Which Potency does the source give for CC(C)(O)[C@@H]1[C@@H]2C[C@@]3(CC[C@]4(C)C(CCC5[C@@]6(C)CC[C@H](O)C(C)(C)C6CC[C@]54C)[C@@H]13)C(=O)O2 (some centres not stated) here?
**A.** inconclusive [activator, single point]

**Q.** With CSC(=NC#N)N1CCN(C(c2ccccc2)c2ccccc2)CC1 as the compound, how does the Potency read?
**A.** inconclusive [activator, single point]

**Q.** Which Potency does the source give for CCOC(=O)[C@]12CCC=C1N(Cc1cccc3ccccc13)C(=O)[C@H](CC(=O)N1CCN(C(=O)c3ccco3)CC1)C2 here?
**A.** inconclusive [activator, single point]

**Q.** For COc1ccccc1C(=O)NNC(=S)NC(=O)c1cc(OC)c(OC)c(OC)c1, which Potency is on record?
**A.** inconclusive [activator, single point]

From PubChem BioAssay AID652106 (National Center for Advancing Translational Sciences (NCATS), 2013)
